This is an account of results in ChEMBL document CHEMBL1201862, “PubChem BioAssay data set” (2004).

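Tested at 5 concentrations; 48 h exposure; 96-well plates; endpoints linearly interpolated, else capped at highest concentration. The concentration for 50% growth inhibition is given as GI50.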 Active and inactive are the calls of the source. Rule as the data show it: active = GI50 up to about 1.1 µM and inactive = higher.

This assay concerns NCI-H322M. Nature of the assay: NCI-60 cell line screen, 48 h.
For the compound `CCCCCCCCCCCCCCCCCC(=O)NCC(COP(=O)(O)O)OCC` (stereo not given), the GI50 is inactive: 49.1 µM. As for `Cc1c(N2CCCC2)cc2c(c1NC(=O)c1ccccc1Cl)C(C)(C)CC2(C)C`, the figure is inactive: 14.5 µM; as for `COc1cccc2cc(C(C)=O)c(=O)oc12`, inactive: > 100 µM; as for `COC1=CC(=O)c2c(ccc3ncnc(N)c23)C1=O`, inactive: 3.52 µM. For `[O-][N+]1(CC[N+]2([O-])CCCCC2)CCCCC1` the value was inactive: > 100 µM; for `c1ccc(-c2nnc3nn4c(-c5ccccc5)cnnc4c3c2-c2ccccc2)cc1`, inactive: > 100 µM; for `COc1cc([C@@H]2c3cc4c(cc3[C@@H](NCCNCCO)[C@H]3COC(=O)[C@H]23)OCO4)cc(OC)c1O`, inactive: 5.21 µM. As to `CCOC(=O)Cc1[nH]c(C(=O)c2ccccc2)cc1C(=O)c1ccccc1`, the GI50 is inactive: 52.8 µM. For `O=C1Oc2ccccc2C1C/C(=N\Nc1ccccc1)c1ccccc1O` (stereo not given) the value was inactive: 21.1 µM; for `C(/C=N/N=C1NCCCN1)=N\N=C1NCCCN1`, inactive: > 100 µM; for `Cc1cccc(-c2cc(=O)c3cc(C)c(C)c(C(=O)O)c3o2)c1`, inactive: > 100 µM. For `O[C@@]12Cc3c([nH]c4ccccc34)[C@@H]3Oc4cccc5c4[C@@]31CCN(CC1CC1)[C@@H]2C5` the value was inactive: 52.4 µM; for `CCc1cccc(C(C)C)c1NC(=O)/C(=N\NC(N)=O)C(C(=O)OC)c1cnc2ccccc2n1` (stereo not given), inactive: 57.3 µM.

In the case of `CCOc1ccc(Nc2nc(C)c(C(=O)/C=C/c3ccc(Cl)cc3Cl)s2)cc1`, the GI50 was inactive: 35.2 µM. As for `N#C/C(=C\c1cn(Cc2ccccc2)c2ccccc12)c1nn(-c2ccccc2)c(N)c1C#N`, the figure is inactive: 15.1 µM; as for `O=C1C([P+](c2ccccc2)(c2ccccc2)c2ccccc2)=C([O-])C(=Cc2ccc(Cl)c(Cl)c2)C([O-])=C1[P+](c1ccccc1)(c1ccccc1)c1ccccc1`, inactive: 3.95 µM; as for `C=C(COC(C)=O)CC(OC(C)=O)c1ccccc1` (stereo not given), inactive: > 100 µM. For `Cc1cnc2c(c1)C(=O)C1=C(OC(C)(C)CC1O)C2=O` (stereo not given) the value was inactive: 15.1 µM; for `COC(=O)[C@@]12C=CC(=O)[C@H]3C[C@@H](C(C(C)C)C1)[C@]32OC` (stereo not given in full), inactive: > 100 µM; for `Cc1cccc2c1C/C(=C1\CCc3c(C)cccc31)C2=O`, inactive: > 100 µM.

In the case of `CC(=O)OC1C2CCC3CC2C2(SCCS2)C31` (stereo not given), the GI50 was inactive: 45.9 µM.

Consider `O=C1NC(=O)c2c1n(Cc1ccccc1)c(=O)n2Cc1ccccc1`, for which the GI50 is inactive: > 100 µM. For `NCCCc1c(-c2ccccc2)[nH]c(N)nc1=O` the value was inactive: > 100 µM. As for `C1=Nc2sc3c(c2C2=NCCN12)CCCC3`, the figure is inactive: 16.7 µM; as for `COC(=O)CSSCc1ccc([N+](=O)[O-])cc1`, inactive: 16.2 µM.

For `C/C=C/[C@@]1(OC(=O)c2ccccc2)C[C@@H]2CCCC[C@@H]21`, the GI50 was inactive: 19.1 µM. Take `CC1=C(C(=O)NCc2ccccc2)C(c2ccccc2[N+](=O)[O-])C(C(=O)NCc2ccccc2)=C(C)N1`: the GI50 was inactive: 16.1 µM. Regarding `Oc1ccccc1CNCc1nc2ccccc2[nH]1`, the GI50 was inactive: 91.4 µM. With `c1csc(-c2cc(-c3ccsc3)c(-c3ccsc3)s2)c1`, the GI50 is inactive: 83 µM. As for `CC(=O)OC1C(O)COC(O[C@H]2CC[C@]34C[C@]35CC[C@]3(C)C([C@@]6(C)CC[C@@H](C(C)(C)O)O6)[C@@H](O)C[C@@]3(C)C5C[C@H](OC3OCC(O)C(O)C3O)[C@H]4C2(C)C)C1OC1OCC(O)C(O)C1O` (stereo not given in full), the GI50 was inactive: > 100 µM. Regarding `CS/C(N)=N/c1cccc2ccccc12`, the GI50 was inactive: > 10 µM. As for `CCOC(=O)C(CCc1ncnc2c1ncn2Cc1ccccc1)(CCc1ncnc2c1ncn2Cc1ccccc1)C(=O)OCC`, the GI50 was inactive: 74.5 µM. Turning to `N=C(N)n1nc2c(c1O)CCCC2`, the GI50 was inactive: > 100 µM.

`CN1C(=O)[C@@]2(C=CC3(CC2)OCCO3)c2ccccc21`: the GI50 was inactive: > 50 µM.

`O=C(/C=C(\O)C(=O)O)/C=C(\O)c1ccccc1`: the GI50 was inactive: > 4.65 µM. As for `O=[N+]([O-])c1ccc2nc3ccc([N+](=O)[O-])cn3c2c1`, the GI50 is inactive: > 100 µM. Take `COC(=O)C1CC(C=[N+](C)C)=C(SC)N1C(=O)OCc1ccccc1` (stereo not given): the GI50 was inactive: > 100 µM. As to `COc1ccc(OCC(=O)O)c2c1CCC(C)C2=O` (stereo not given), the GI50 is inactive: > 100 µM.

For the compound `COc1ccc2cc(CN3CCC(C4CCNCC4)CC3)ccc2c1`, the GI50 was inactive: 2.04 µM.

For `[N-]=[N+]=Nc1c(-c2ccccc2)c(Cl)nc2ccccc12`, the GI50 was inactive: 29.3 µM.

As for `COc1cccc(-c2nc(-c3cnccn3)n(C/C=C/c3ccccc3)n2)c1`, the GI50 was inactive: > 10 µM.

As to `O=C(CCCl)NN=C1NCCN1`, the GI50 is inactive: > 100 µM. For `COC(=O)C1OC(O[C@H]2CC[C@]3(C)[C@H]4CC=C5[C@@H]6CC(C)(C)CC[C@]6(C(=O)OC)CC[C@@]5(C)[C@]4(C)CC[C@H]3C2(C)C)C(O)C(O)C1O` (stereo not given in full) the value was inactive: 16.4 µM; for `CC(=O)O[C@@H]1C[C@]2(C(=O)c3ccccc3)C(=O)C(=O)S[C@]12c1ccccc1`, inactive: > 100 µM; for `COc1ccc2[nH]cc(CN3CCC(CO)(c4ccccc4)CC3)c2c1`, inactive: 44.5 µM. As for `CCOC(=O)C(=Cc1ccccc1Cl)C(=O)OCC`, the GI50 was inactive: 1.8 µM. As for `COC(=O)c1ccc(/N=N/N(C)COc2ccc(Br)cc2)cc1`, the figure is inactive: > 100 µM. For the compound `Cc1ccc2c(n1)C(=O)c1cc(C)c(C)cc1C2=O`, the GI50 is inactive: 61.1 µM.

Consider `O=C(O)CNC(=O)CO/N=C1/C(=C2/C(=O)Nc3ccccc32)Nc2ccccc21`, for which the GI50 was inactive: > 100 µM. For `c1ccc2/c3[nH]/c(c2c1)=N\c1ccc(cc1)-c1nc2cc(ccc2o1)/N=c1/[nH]/c(c2ccccc12)=N/c1ccc2nc(oc2c1)-c1ccc(cc1)\N=3` the value was inactive: > 100 µM; for `CCc1c(CN)c(CC)c(CNC2=NCCN2)c(CC)c1CNC1=NCCN1`, inactive: > 100 µM. For `N#CC(C#N)=c1c2ccccc2c(=C(C#N)C#N)c2ccccc12` the value was inactive: 16.5 µM.

`CCOP(=O)(OCC)C(C(=O)OC)C(=O)C(=O)Nc1ccc(Cl)cc1Cl` (stereo not given): the GI50 is inactive: > 100 µM. Regarding `c1cc(-c2cn[nH]c2)cc(-c2cn[nH]c2)c1`, the GI50 was inactive: 49.9 µM. As for `CC(C)=CC[C@]12CCN[C@H]1N(S(=O)(=O)c1ccccc1)c1ccccc12`, the figure is inactive: 21.2 µM; as for `O=[N+]([O-])/C(Cl)=C(/C(Cl)=C(Cl)Cl)N1CCCCC1`, inactive: 15.8 µM. For the compound `C[S+](C)CCOC(=O)C(=[N+]=[N-])c1ccc([N+](=O)[O-])cc1`, the GI50 was inactive: > 100 µM.

For `Cc1nn(-c2ccccn2)c2c1C(SC#N)=C(C=O)CC2`, the GI50 was inactive: 15 µM.

On to `C=CC(C)(C)n1cc(C2=C(O)C(=O)C(c3c(CC=C(C)C)[nH]c4ccccc34)=C(O)C2=O)c2ccccc21`, for which the GI50 was inactive: 1.98 µM. With `O=c1c(Br)cc2c(-c3ccccc3)c3cc(Br)c(O)c(Br)c3oc-2c1Br`, the GI50 is inactive: 96.8 µM. For `CC#CCC1CCC(OCC)=CC1=O` (stereo not given) the value was inactive: > 100 µM; for `CCCSC1=N/C(=C\c2ccco2)C(=O)N1`, inactive: > 100 µM. As for `CC(=O)Nn1c(=S)[nH]c2ccccc21`, the figure is inactive: > 100 µM; as for `COc1ccc2nc3ccccc3c(NCCN(C)CCCl)c2c1`, active: 0.791 µM; as for `O=C(NCCCCCCCCCCCCNC(=O)Nc1cccc2ccccc12)Nc1cccc2ccccc12`, inactive: 18.3 µM.

In the case of `c1ccc(CSc2nc3ccccc3nc2-c2cccs2)cc1`, the GI50 was inactive: > 100 µM. As to `Cc1cccc2c1CC1(C2)Cc2c(C)cccc2C1=O` (stereo not given), the GI50 is inactive: 24.9 µM. For `C[C@@H]1CC[C@H]2[C@H]1[C@H]1[C@@H](CC[C@]2(C)N=C=S)C1(C)C` the value was inactive: 26.8 µM; for `Cc1ccc(S(=O)(=O)N2C3C=CC(C3)[C@@H]2C(Cl)(Cl)Cl)cc1` (stereo not given in full), inactive: 22.8 µM. For `CC(=O)OC[C@]1(O)CC[C@@]23CC1C[C@@H]2CCC1C(C)(C)CCC[C@@]13C` (stereo not given in full) the value was inactive: 16.1 µM; for `CCOC(=O)Oc1cc2c(c(OC)c1OC)-c1ccc(OC)c(=O)cc1C(NC(C)=O)CC2` (stereo not given), active: 0.179 µM. Regarding `C1=C(c2ccccc2)O[C@H](COCc2ccccc2)C(OCc2ccccc2)[C@@H]1OCc1ccccc1` (stereo not given in full), the GI50 was inactive: > 10 µM.

For `CCCC(O)[C@@]1(CC)CC(C)C(O)(C2(C)C[C@H](C)[C@@H](C(CC)C(=O)C(C)[C@@H](O)[C@H](C)C3OC(O)(C(CC)C(=O)O)[C@@H](C)C(O)C3CC)O2)O1` (stereo not given in full), the GI50 was inactive: 1.17 µM. Turning to `Cc1oc2c(C)c3oc(=O)cc(C)c3cc2c1CNC(=O)[C@@H]1OCCOCCOCCOCCOCCOC1C(=O)O` (stereo not given in full), the GI50 is inactive: > 100 µM. As to `COc1ccc2c(c1)O[C@H]1c3ccc(O)cc3OC[C@@H]21`, the GI50 was inactive: 35.7 µM. As for `C=C(CN(C)C)C(=O)c1ccccc1[N+](=O)[O-]`, the figure is inactive: > 73.6 µM; as for `Cc1ccccc1-n1c2nc(=O)n(C)c(=O)c-2nc2ccccc21`, inactive: 19.4 µM. As for `COc1cc2c3cc1Oc1c(O)c(OC)cc4c1[C@H](Cc1ccc(cc1)Oc1cc(ccc1O)C[C@H]3N(C)CC2)N(C)CC4`, the figure is inactive: 16.9 µM; as for `NNC(=O)COc1nc(-c2cccs2)nc2ccc(I)cc12`, inactive: 16.4 µM; as for `CCN(CC)CCNc1ccc2nnn3c4ccc([N+](=O)[O-])cc4c(=O)c1c23`, inactive: 5.26 µM.
